Experimental findings from paper PMC2270309 (2008) are described below.

The labels stand for the following.
B1: Mad2 R133A, L84A (protein)
chain: not shown
B2: Mad2 R133A, K200A (protein)
chain: not shown
B3: Mad2 R133A, E179A (protein)
chain: not shown
B4: Mad2 R133A, I88A (protein)
chain: not shown
B5: Mad2 R133A, D158A (protein)
chain: not shown
B6: Mad2 R133A, F151A (protein)
chain: not shown
B7: Mad2 R133A, T12A (protein)
chain: not shown
B8: Mad2 R133A, D160A (protein)
chain: not shown
B9: Mad2 R133A, L154A (protein)
chain: not shown
B10: Mad2 R133A, V163A (protein)
chain: not shown
B11: Mad2 R133A, V181A (protein)
chain: not shown
B12: Mad2 R133A, S170A (protein)
chain: not shown

The assay addresses T1, Mad2-binding motif of Cdc20 (Limits not printed. 111-138 is the conventional Mad2-binding fragment of human Cdc20 around the KILR motif (129-132). Check residues come from the candidate's motif feature, not from the paper.).
T1 chain: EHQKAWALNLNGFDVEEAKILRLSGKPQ
Briefly: ITC.
Molecule B1 yielded a Kd of 160 nM.
The result for B2 reads 170 nM; that for B3, 160 nM; that for B4, 200 nM.
The result for B5 reads 130 nM; that for B6, 290 nM; that for B7, 110 nM.
The same measure for B8: 260 nM; for B9: 1210 nM.
Take B10: binding was characterised by a dissociation constant (Kd) of 230 nM.
The result for B11 reads 100 nM; that for B12, 81 nM.
